# Source: the supplement of paper PMC12217912
# Some of the results follow. Sequences were assembled here from the parent chain. Values near 0.05 are background.
# B1: TEV protease; numbered along this chain (parent)
# chain: MGESLFKGPRDYNPISSSICHLTNESDGHTTSLYGIGFGPFIITNKHLFRRNNGTLVVQSLHGVFKVKDTTTLQQHLVDGRDMIIIRMPKDFPPFPQKLKFREPQREERICLVTTNFQTKSMSSMVSDTSCTFPSGDGIFWKHWIQTKDGQCGSPLVSTRDGFIVGIHSASNFTNTNNYFTSVPKNFMELLTNQEAQQWVSGWRLNADSVLWGGHKVFMVKPEEPFQPVKEATQL
# Variants of: B1
# Assay: raw area under fraction-flipped curve 0-4 h after induction (AUC4h, not background-subtracted), DNA-recorder readout of cleavage of the substrate (dimensionless); higher = more cleavage of the substrate by the protease variant
# Settings: temperature: 34 °C; time window: 0-4 h after rhamnose induction
# Method: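 In vivo DNA recorder in E. coli TOP10(DE3) ΔrhaA at 34 °C. Each TEVp single-site mutant (parent TEVp 0) is paired with a single-site variant of the 7-mer TEVs (canonical ENLYFQ|S). The substrate sits between flexible linkers in a Bxb1-sfGFP-TEVs-SsrA fusion, so cleavage stabilises Bxb1 and speeds flipping of a recombination array, read by NGS. The value is the raw area under the fraction-flipped curve over 0-4 h after rhamnose induction (AUC4h), with ≥20 reads per time point. It is not background-subtracted; inactive controls average about 0.047.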
# 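Further: Bxb1 expression induced with 0.2% (w/v) L-rhamnose at OD600 near 0.5, cultures sampled hourly, flipped fraction per protease–substrate barcode pair counted by paired-end Illumina sequencing.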
Variant,area with substrate ENLYAQS,area with substrate ENLYDQS,area with substrate ENLYEQS,area with substrate ENLYGQS,area with substrate ENLYHQS,area with substrate ENLYIQS,area with substrate ENLYNQS,area with substrate ENLYPQS,area with substrate ENLYQQS,area with substrate ENLYRQS,area with substrate ENLYSQS,area with substrate ENLYVQS,area with substrate ENLYYQS,area with substrate ENLYKQS,area with substrate ENLYMQS,area with substrate ENLYTQS,area with substrate ENLYWQS,area with substrate ENLYCQS,area with substrate ENLYLQS
E3Q,0.0707,0.057,0.0769,0.0592,0.0805,0.121,0.0733,0.0755,0.0635,0.0701,0.0866,0.103,0.0681,–,–,–,–,–,–
S4C,0.0768,0.0649,0.0817,0.0601,0.0672,0.0875,0.0677,0.0701,–,–,0.0697,0.0846,0.0623,0.0721,0.0657,0.0784,0.067,–,–
K7D,0.0705,0.0709,–,0.0612,0.0586,0.116,0.0612,0.0692,0.0583,0.0739,0.0692,–,–,0.0713,0.0095,0.0593,0.0831,–,–
Y12L,0.0762,–,0.0605,0.0691,0.0574,0.124,0.0761,0.103,–,0.051,0.0644,0.109,–,0.0485,0.0981,–,0.0902,–,–
N13I,0.0804,0.04,0.0734,0.0857,0.0622,0.101,0.0605,0.077,0.0776,–,0.0666,0.0889,0.0647,0.0533,–,–,0.0754,0.0693,–
N13L,0.066,0.0663,0.0429,0.0614,0.0688,0.142,0.066,0.0859,0.0586,0.056,0.0871,0.124,–,0.0753,0.0841,0.0559,0.0743,–,0.0934
P14A,0.0867,0.0528,0.0755,0.0726,0.0904,0.13,0.0718,0.072,–,0.0559,–,0.157,0.083,0.0681,0.0551,–,0.0869,0.0979,0.0835
P14M,0.0642,0.0592,0.0681,0.064,0.0683,0.0903,0.0682,0.0761,0.0654,0.061,0.0798,0.0577,0.0476,0.0651,0.0837,0.0792,0.107,0.0787,0.0792
P14T,0.0716,0.062,0.0677,0.0655,0.0804,0.116,0.0629,0.0584,0.0599,0.0598,0.0596,0.112,0.0646,0.0632,0.0904,0.0659,0.0727,0.0871,–
P14Y,0.0705,0.0652,0.0745,–,0.0534,–,0.0713,0.0474,0.0627,0.0658,–,0.109,0.0622,0.0697,–,–,0.0786,–,0.0783
I15D,0.052,0.0569,0.0621,0.0488,0.0528,0.0856,0.0615,0.0696,0.0478,0.0581,0.0629,0.077,0.0464,0.0553,0.0643,0.0598,0.06,–,0.0601
I15K,0.0516,0.0561,0.0612,0.0543,0.0673,–,0.0548,0.0582,0.0448,0.0438,0.0474,0.0869,–,0.0605,–,0.0575,0.0625,–,0.0527
S17A,0.0513,0.0819,0.0622,0.0685,0.0669,0.134,0.0733,0.0742,0.052,0.095,0.0781,0.105,0.115,0.0689,0.0922,–,0.103,0.0847,0.0911
I19K,0.0524,–,0.0536,–,0.0251,0.0612,–,–,–,–,–,–,0.0572,0.0538,0.0753,0.0563,0.049,–,–
I19P,0.0356,0.0446,0.0466,0.0481,0.0427,0.0464,0.0443,0.0396,0.0405,0.0439,–,0.0425,0.0467,0.047,0.0435,0.0443,0.0506,–,0.0446
I19V,0.0768,0.0681,0.0513,–,0.0721,0.141,0.0662,–,0.0561,–,–,0.116,–,0.0644,–,0.0858,0.0694,0.0801,0.0747
I19Y,0.0667,0.0494,0.0899,0.0658,0.0555,0.0918,0.06,0.0557,–,0.0617,0.0458,0.0733,0.0599,0.0488,0.0746,–,0.0466,–,–
H21A,0.0642,0.0693,0.0713,0.0613,0.0688,0.111,0.0896,0.0614,0.0689,0.059,0.087,0.0953,0.0822,0.0568,0.107,–,–,–,0.0726
H21C,0.0854,0.0625,–,0.0745,0.0608,0.101,0.0661,0.0663,0.0576,–,0.0935,0.0722,0.0588,0.0687,0.0634,–,0.0813,0.0945,0.087
H21Q,0.0705,0.0616,0.0676,0.0631,0.0749,0.113,0.0633,0.0715,0.0656,0.0512,0.0673,0.111,0.0787,0.0601,0.0944,0.0789,0.0723,0.0934,–
L22E,0.0391,0.044,0.0421,0.0481,0.0613,0.0416,0.0492,–,–,0.0628,0.0639,0.0451,–,0.0245,0.0482,0.044,0.0447,0.0476,0.0428
L22I,0.0793,0.0626,0.0641,0.0247,0.0687,0.122,0.0832,0.0719,0.0556,0.0618,–,0.126,–,0.0455,0.0907,0.0821,0.0869,–,–
